Some test systems named below: M14 melanoma; SF-539 CNS; MDA-MB-435 melanoma; EKVX NSCLC; U251 glioblastoma; SR leukemia; SNB-75 CNS; SK-OV-3 ovarian; A498 renal; UO-31 renal; COLO 205 colon; SK-MEL-5 melanoma; SN12C renal; SF-295 CNS; BT-549 breast; MDA-MB-468 breast; NCI-H522 lung; NCI-H226 lung; UACC-257 melanoma.
What all share (experiment): NCI anticancer screen, dose series, 384-well format

SMILES strings stand for the structures.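 The concentration for 50% growth inhibition is given as GI50.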 For part of its entries the source gives two or more results. The other results are left out here. The source may hold further records. Records of one sample usually come from different ranges of test concentrations, not given here; a value can be the end of its range.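 TGI: concentration producing complete growth inhibition.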

With `Nc1nc2[nH]cc(CCc3ccc(C(=O)N[C@@H](CCC(=O)O)C(=O)O)cc3)c2c(=O)[nH]1`, the TGI was 50 µM and 613 nM with M14 melanoma; 50 µM and 573 nM with SF-539 CNS; 50 µM and 958 nM in the assay with U251 glioblastoma; 50 µM and 55.7 nM with SR leukemia; 322 nM and > 100 µM in the assay with SNB-75 CNS; 50 µM and 92.4 nM in the assay on UO-31 renal. For the same molecule, the TGI was 50 µM and 336 nM in the assay with COLO 205 colon; 50 µM and 193 nM with SN12C renal; 50 µM and 618 nM in the assay with SF-295 CNS; 50 µM and 213 nM in the assay on BT-549 breast; 464 nM and > 100 µM with MDA-MB-468 breast; 50 µM and 860 nM with NCI-H522 lung. The TGI with NCI-H226 lung is 50 µM and 67.4 nM; in the assay on UACC-257 melanoma, > 50 µM and 935 nM. Also, the GI50 in the assay with MDA-MB-435 melanoma was 309 nM and > 100 µM; with EKVX NSCLC it was > 50 µM and 416 nM; in the assay with SK-OV-3 ovarian, > 50 µM and 70.3 nM; in the assay with A498 renal it was 563 nM and 54.6 nM; with SK-MEL-5 melanoma, > 50 µM and 3.66 µM; with UACC-257 melanoma, > 50 µM and 342 nM.

The values are drawn from PubChem BioAssay (NCI).
